SMILES strings stand for the structures. About 550 (1.1%) of roughly 48,000 compounds were called active. Inconclusive results (about 4%) are left out. Cut-off read from the data, not from the text of the source: active = potency below about 15 µM; inconclusive = mostly about 16 µM to 33 µM; inactive = weaker than that. The list shows a part of the results.
Potency is the fitted concentration of half-maximal effect.

The experiment concerns the target Lysosomal acid glucosylceramidase (Homo sapiens) (UniProt P04062). Briefly: Glucocerebrosidase.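 Note: the screen sought inhibitors.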 Conditions: purified enzyme, resorufin glucoside fluorescence (screen aimed at inhibitors), 20 min; series mostly up to 77 µM. The text has this: NCGC Assay Overview: Beta-glucocerebrosidase catalyzes the hydrolysis of beta-glucocerebroside to glucose and ceramide. The inherited deficiency of beta-glucocerebrosidase results in Gaucher disease, which is characterized by a wide variety of symptoms including hepatosplenomegaly, anemia, thrombocytopenia, bony lesions and bone marrow infiltration with characteristic storage cells, known as Gaucher cells. There are also forms of the disorder affecting the central nervous system. Patients with the same genotypes can manifest with diverse clinical presentations and it is believed that improper folding and trafficking of beta-glucocerbrosidase may contribute to the phenotypes observed. Low molecular weight molecules, acting as chaperones, may potentially restore trafficking of misfolded beta-glucocerebrosidase from the endoplasmic reticulum to the lysosomes, thereby enhancing functional lysosomal beta-glucocerebrosidase activity. Using normal beta-glucocerebrosidase, an assay was developed to screen for small molecule inhibitors that could potentially act as molecular chaperones on the mutant forms [developed with NIH investigator Dr. Ellen Sidransky's laboratory]. Two pro-fluorescent substrates were chosen for two screens against a small molecule library. One beta-glucocerebrosidase assay used Resorufin beta-D-Glucopyranoside (Marker Gene Technology Inc.), generating a red fluorescent product. The second assay used Fluorescein di-beta-D-Glucopyranoside, generating a blue fluorescent product. […] The IC50 values of Conduritol B Epoxide, a known glucocerebrosidase inhibitor, were determined to be 87.5 uM and 117 uM, respectively. The use of two difference pro-fluorescent substrates in the screens helped to eliminate false positives. All compounds were screened in a titration series resulting in AC50s (e.g., IC50s or EC50s).
Chain of UniProt P04062 (P04062 whole entry, looked up): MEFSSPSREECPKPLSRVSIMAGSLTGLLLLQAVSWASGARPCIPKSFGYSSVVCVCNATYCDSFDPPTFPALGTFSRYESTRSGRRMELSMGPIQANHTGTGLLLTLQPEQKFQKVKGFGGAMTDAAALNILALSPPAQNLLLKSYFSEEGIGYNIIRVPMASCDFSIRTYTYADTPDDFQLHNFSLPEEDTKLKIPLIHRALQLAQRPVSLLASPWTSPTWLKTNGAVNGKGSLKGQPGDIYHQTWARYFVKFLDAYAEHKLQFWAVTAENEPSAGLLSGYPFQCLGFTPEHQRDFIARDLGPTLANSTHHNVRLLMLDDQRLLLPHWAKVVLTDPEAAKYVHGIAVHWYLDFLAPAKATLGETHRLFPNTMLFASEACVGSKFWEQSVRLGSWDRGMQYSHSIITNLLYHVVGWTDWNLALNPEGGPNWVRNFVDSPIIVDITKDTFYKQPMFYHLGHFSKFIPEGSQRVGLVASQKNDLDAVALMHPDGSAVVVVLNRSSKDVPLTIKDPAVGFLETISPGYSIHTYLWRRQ
NCGC Assay Protocol Summary: Both enzyme and substrate were diluted in buffer composed of 50mM citric acid/KH2PO4, 10mM sodium taurocholate and 0.01% tween-20 at pH 5.9. The final concentration of the enzyme was 0.2 nM in both assays. The compound library was titrated in 7 to 15 concentrations for the primary screens with a final concentration ranging from 0.6 nM to 50 uM. This particular assay protocol is for the "red" substrate, and it was performed in 1536-well plate format as follows: Red fluorescence substrate assay: 2 uL enzyme 23 nL compound 1 uL substrate (final concentration of 30 uM) Incubate at room temperature (RT) for 20 minutes Read the plate in Viewlux plate reader (Ex=548(7) and Em=600(10)).
For the compound `O=C(COC(=O)c1ccc(Br)o1)Nc1ccc(S(=O)(=O)N2CCCC2)cc1`, the Potency is inactive: > 76.9 µM.

As to `CCCn1c(SCC(=O)NCCc2ccc(Cl)cc2Cl)n[nH]c1=O`, the Potency is inactive: > 76.9 µM.

As to `COc1cccc2cc(C(=O)N3CCc4ccccc4C3)c(=O)oc12`, the Potency is inactive: > 76.9 µM.

On to `COc1cc(Cl)c(C)cc1NC(=O)CSC`, for which the Potency is inactive: > 76.9 µM.

Consider `COc1cc(OC)cc(C(=O)NCc2cccnc2)c1`, for which the Potency was inactive: > 76.9 µM.

With `COc1ccc(OC)c(CNc2nc3ccccc3n2CCN2CCCCC2)c1`, the Potency was inactive: > 76.9 µM.

As for `COc1ccccc1NC(=O)COc1ccc(C(=O)OCC(=O)N2CCCC2=O)cc1OC`, the Potency is inactive: > 76.9 µM.

As to `CC(=O)c1sc(NC(=O)C=C(C)C)nc1C`, the Potency was inactive: > 76.9 µM.

`CCn1c(=O)cc(SCC(=O)N2CCN(Cc3ccc4c(c3)OCO4)CC2)c2ccccc21`: the Potency is inactive: > 76.9 µM.

With `Cn1c(C(=O)OCC(=O)NCCc2ccccc2)cc2sccc21`, the Potency was inactive: > 76.9 µM.

Take `Cc1nc(SCC(=O)N2CCC(C(N)=O)CC2)n[nH]1`: the Potency was inactive: > 76.9 µM.

As for `CCN(CCCNC(=O)CC(C(=O)N1CCc2ccccc21)n1ccnc1)c1ccccc1` (configuration not stated), the Potency entry is “inactive”.

For the compound `Cc1nnc(SCC(=O)NCC2CCCO2)n1-c1ccccc1` (configuration not stated), the Potency is inactive: > 76.9 µM.

As to `O=C(Cn1c(=O)n(CCCC(=O)NC2CCCC2)c(=O)c2ccccc21)NCCC1=CCCCC1`, the Potency was inactive: > 76.9 µM.

Consider `CN1/C(=C\C(=O)Nc2cccnc2)c2ccccc2CC1(C)C`, for which the Potency is inactive: > 76.9 µM.

In the case of `O=C1c2cccnc2C(=O)N1C1CCCCC1`, the Potency is inactive: > 76.9 µM.

As to `OCCNc1ccc(Cl)cc1`, the Potency is inactive: > 76.9 µM.

On to `O=C(OCc1c(Cl)cccc1Cl)c1ccccn1`, for which the Potency is inactive: > 76.9 µM.

For `COc1ccc(C2(O)CCN(CC(=O)Nc3nccs3)CC2)c(OC)c1`, the Potency is inactive: > 76.9 µM.

On to `COCc1cc(C)c(C#N)c(=S)[nH]1`, for which the Potency is inactive: > 76.9 µM.

Take `COc1cccc(C(=O)N(CN2CCCC2=O)c2cc(C)on2)c1`: the Potency was inactive: > 76.9 µM.

Regarding `Cc1nc2cc(O)ccc2n1C`, the Potency was inactive: > 76.9 µM.

In the case of `Cn1c(SC2=CS(=O)(=O)c3ccccc32)nc2ccccc21`, the Potency is inactive: > 76.9 µM.

As to `CCOC(=O)c1c(C)[nH]c(NC(=O)Nc2c(C)n(C)n(-c3ccccc3)c2=O)c1C`, the Potency was inactive: > 76.9 µM.

Turning to `CCN(CC)c1nc2ccccc2nc1C(C#N)C(=O)NCCc1ccccc1` (configuration not stated), the Potency is inactive: > 76.9 µM.

For `COC(=O)COc1ccc(C(=O)OC)cc1`, the Potency was inactive: > 76.9 µM.

Turning to `Fc1ccc(N2CCN(c3nc(-c4ccco4)cc(C(F)(F)F)n3)CC2)cc1`, the Potency was inactive: > 76.9 µM.

In the case of `Cc1ccc(NC(=O)CCNS(=O)(=O)c2ccc3c(c2)oc(=O)n3C)c(C)c1`, the Potency was inactive: > 76.9 µM.

`O=C(NCCc1ccccc1)c1cc(-c2ccco2)on1`: the Potency was inactive: > 76.9 µM.

In the case of `O=c1[nH]c2ccccc2n1CCCSCCCn1c(=O)[nH]c2ccccc21`, the Potency is inactive: > 76.9 µM.

Turning to `CN(C)S(=O)(=O)c1ccc(C(=O)N2CCC(c3nc4ccccc4o3)CC2)cc1`, the Potency is inactive: > 76.9 µM.

As to `O=C(Nc1nc2ccccc2n1Cc1ccccc1)c1ccco1`, the Potency is inactive: > 76.9 µM.

Turning to `CC1CCN(c2nnc(N)s2)CC1`, the Potency was inactive: > 76.9 µM.

On to `Cc1cc2ccccc2c(=O)n1CC(=O)NCC(=O)N1CCN(c2ccccc2)CC1`, for which the Potency is inactive: > 76.9 µM.

For `CC(C)(C)c1nc2ccccc2c2nnc(SCC(=O)NCc3ccco3)n12`, the Potency was inactive: > 76.9 µM.

`CC(C)OCC(O)Cn1c(N2CCCC2)nc2c1c(=O)[nH]c(=O)n2C` (configuration not stated): the Potency was inactive: > 76.9 µM.

On to `O=C(NCC1CCCO1)c1ccccc1-c1nc(-c2ccc(Cl)cc2)no1` (configuration not stated), for which the Potency entry was “inactive”.

`C=CCn1c(Cc2cccs2)nnc1SCC(=O)Nc1cccc(OC)c1`: the Potency is inactive: > 76.9 µM.

On to `COc1ccc(Cc2nn3c(-c4cc(OC)c(OC)c(OC)c4)nnc3s2)cc1`, for which the Potency was inactive: > 76.9 µM.

Regarding `Cc1cc(C)cc(OCC(=O)NCc2nc(-c3ccccc3)no2)c1`, the Potency was inactive: > 76.9 µM.

As for `O=C(CN1CCN(C(=O)c2c(F)cccc2F)CC1)Nc1ccccc1F`, the Potency was inactive: > 76.9 µM.

In the case of `CCN1CCN(C(=O)C2c3cc(OC)c(OC)cc3C(=O)N(C)C2c2ccc(SC)cc2)CC1` (configuration not stated), the Potency was inactive: > 76.9 µM.

`CC1=C(C(=O)Nc2cc(C)ccn2)C(c2ccc(C)cc2)C2=C(CCCC2=O)N1` (configuration not stated): the Potency is inactive: > 76.9 µM.

For the compound `COC(=O)c1cccc(NC(=O)Cn2cnc3ccccc3c2=O)c1`, the Potency was inactive: > 76.9 µM.

Take `COc1cccc(-c2nc(S(=O)(=O)c3ccccc3)c(N3CCOCC3)o2)c1`: the Potency is inactive: > 76.9 µM.

Consider `CCn1nnnc1SCC(=O)Nc1cc(OC)cc(OC)c1`, for which the Potency is inactive: > 76.9 µM.

Consider `O=C1c2ccccc2C(=O)N1CCCCN1CCN(CCCCN2C(=O)c3ccccc3C2=O)CC1`, for which the Potency is inactive: > 76.9 µM.

Consider `CCOC(=O)CCNC(C)C1COc2ccccc2O1` (configuration not stated), for which the Potency is inactive: > 76.9 µM.

For the compound `Cc1ccc(S(=O)(=O)NCC(=O)NC2CCCCCC2)cc1`, the Potency is inactive: > 76.9 µM.

On to `Cc1ccc(S(=O)(=O)NCC(c2cccnc2)N(C)C)cc1` (configuration not stated), for which the Potency was inactive: > 76.9 µM.

On to `COc1ccc(OC)c(C(=O)COC(=O)c2ccccc2O)c1`, for which the Potency is inactive: > 76.9 µM.

Consider `O=C(CCS(=O)(=O)c1ccc(Br)s1)N1CCc2ccccc21`, for which the Potency was inactive: > 76.9 µM.

With `COC(=O)c1ccccc1NC(=O)C1CCN(S(C)(=O)=O)CC1`, the Potency is inactive: > 76.9 µM.

For the compound `Cc1sc2nnn(CC(=O)N3CCN(C(=O)c4ccco4)CC3)c(=O)c2c1C`, the Potency was inactive: > 76.9 µM.

With `CCOc1cc(S(=O)(=O)NCC2OCCc3ccccc32)c(OCC)cc1-n1cnnn1` (configuration not stated), the Potency was inactive: > 76.9 µM.

Consider `CCc1ccc(CCC(=O)Nc2nc(CC(C)=O)ns2)o1`, for which the Potency was inactive: > 76.9 µM.

As for `COc1ccccc1N1CCN(C(=O)C(Cc2ccccc2)NC(=O)C2CCCCC2)CC1` (configuration not stated), the Potency is inactive: > 76.9 µM.

`O=C(Cn1cnc2c(nnn2-c2ccc(F)cc2)c1=O)N1CCCc2ccccc21`: the Potency was inactive: > 76.9 µM.

Regarding `Cc1ccccc1-c1nc(CN2CCC(C(=O)NCC3CCCO3)CC2)c(C)o1` (configuration not stated), the Potency is inactive: > 76.9 µM.

Turning to `O=C(Oc1cccc2cccnc12)c1cccs1`, the Potency is inactive: > 76.9 µM.

As to `CCn1c(SCC(=O)NCc2ccco2)nc2c1c(=O)n(C)c(=O)n2C`, the Potency was inactive: > 76.9 µM.

As to `O=S(=O)(c1ccc2c(c1)OCCO2)N1CCC(c2nc3ccc(Cl)cc3[nH]2)CC1`, the Potency result is “inactive”.

Take `CC1CN(Cc2ccc(C#N)cc2Cl)CC(C)O1` (configuration not stated): the Potency was inactive: > 76.9 µM.

With `c1ccc(-c2nc3ccccc3nc2-c2ccccn2)nc1`, the Potency was inactive: > 76.9 µM.

For the compound `O=C1CCCC2=C1C(c1ccsc1)CC(=O)N2c1ccccc1` (configuration not stated), the Potency was inactive: > 76.9 µM.

On to `COc1ccc(CNC(=O)CN(CC2CCCO2)C(=O)CNS(=O)(=O)c2ccc(F)cc2)cc1` (configuration not stated), for which the Potency was inactive: > 76.9 µM.

`COc1ccccc1CCC(=O)Nc1nc2ccccc2[nH]1`: the Potency is inactive: > 76.9 µM.

Consider `COCCCn1cnc2c(c1=O)c1nc3ccccc3nc1n2-c1ccc(C)cc1`, for which the Potency is inactive: > 76.9 µM.

Consider `COCCN1C(=O)C(O)=C(C(C)=O)C1c1ccc(F)cc1` (configuration not stated), for which the Potency is inactive: > 76.9 µM.

In the case of `O=C(O)c1ccccc1C(=O)NCc1cccnc1`, the Potency was inactive: > 76.9 µM.

On to `Cc1cccn2c(N)c(-c3ccccc3)nc12`, for which the Potency is inactive: > 76.9 µM.

In the case of `O=C1c2ccccc2C(O)N1Cc1ccccc1` (configuration not stated), the Potency was inactive: > 76.9 µM.

`O=C(Nc1ccc2c(c1)OCCO2)C1CCCN(S(=O)(=O)Cc2ccccc2)C1` (configuration not stated): the Potency is inactive: > 76.9 µM.

Regarding `O=C1c2ccccc2C(=O)N1Cc1ccc2c(c1)OCO2`, the Potency was inactive: > 76.9 µM.

On to `CN(C)CC1(c2ccccc2)CCCC1`, for which the Potency is inactive: > 76.9 µM.

As to `COc1ccccc1Cc1noc(COc2cccc(C)c2C)n1`, the Potency is inactive: > 76.9 µM.

As for `CCOc1cccc2cc(C(=O)NCc3cccnc3)c(=O)oc12`, the Potency was inactive: > 76.9 µM.

Turning to `O=C1c2cccc3c(N4CCCCC4)ccc(c23)C(=O)N1c1ccccn1`, the Potency was inactive: > 76.9 µM.

Regarding `CCCN(CCO)Cc1cccc(Br)c1`, the Potency was inactive: > 76.9 µM.

As for `O=C(CCCC(=O)N(CC(=O)NC1CCCC1)Cc1ccc(F)cc1)Nc1ccccn1`, the Potency was inactive: > 76.9 µM.

Turning to `CCOC(=O)N1CCN(Cc2ccccc2F)CC1`, the Potency is inactive: > 76.9 µM.

For the compound `CS(=O)(=O)N(CC(=O)O)c1cc(Cl)cc(Cl)c1`, the Potency is inactive: > 76.9 µM.

Take `Cc1nc2sc(C)c(C)c2c(=O)[nH]1`: the Potency is inactive: > 76.9 µM.

For the compound `Cc1cc(NC(=O)CSc2nc3ccsc3c(=O)n2CCCCC(=O)O)no1`, the Potency is inactive: > 76.9 µM.

As for `O=c1ccc2cc(S(=O)(=O)Nc3ccc(F)cc3)ccc2o1`, the Potency was inactive: > 76.9 µM.

As for `CCOc1cc(C2c3c(n[nH]c3C)C(=O)N2c2ccc(C)cc2)ccc1O` (configuration not stated), the Potency was inactive: > 76.9 µM.

With `Cc1ccc(N2CC(C(=O)NCc3cccnc3)CC2=O)cc1` (configuration not stated), the Potency is inactive: > 76.9 µM.

As to `CCOC(=O)C1=C(CN2CCN(c3ccc(F)cc3)CC2)NC(=O)NC1c1cccs1` (configuration not stated), the Potency was inactive: > 76.9 µM.

As for `Cn1c(=O)c2c(nc(CN3CCN(Cc4ccccc4)CC3)n2CCN2CCOCC2)n(C)c1=O`, the Potency was inactive: > 76.9 µM.

In the case of `COc1ccc(N(CC(=O)NCc2cccc(OC)c2)S(=O)(=O)c2c(C)noc2C)cc1`, the Potency is inactive: > 76.9 µM.

For `COc1cccc(OCCNC(=O)c2cccc(OC)c2)c1`, the Potency was inactive: > 76.9 µM.

Turning to `CC(C)c1nc(N2CCOCC2)c(C#N)c2c1CCCC2`, the Potency is inactive: > 76.9 µM.

These data come from PubChem BioAssay AID360 (National Center for Advancing Translational Sciences (NCATS), 2006).
